Measured values taken from article PMC4336329 (PLoS ONE, 2015).
Hit rate of the full screen: of about 310,000 compounds, about 2,200 (0.71%) showed an effect of 50% or more. The effect is printed as a negative number. This is one part of the list.

These molecules were tested against human ether-à-go-go-related gene (hERG) potassium channel (human, UniProt Q12809) (assay: primary screen, population patch clamp on CHO cells stably expressing hERG).
Chain of human ether-à-go-go-related gene (hERG) potassium channel (Q12809 whole entry, looked up): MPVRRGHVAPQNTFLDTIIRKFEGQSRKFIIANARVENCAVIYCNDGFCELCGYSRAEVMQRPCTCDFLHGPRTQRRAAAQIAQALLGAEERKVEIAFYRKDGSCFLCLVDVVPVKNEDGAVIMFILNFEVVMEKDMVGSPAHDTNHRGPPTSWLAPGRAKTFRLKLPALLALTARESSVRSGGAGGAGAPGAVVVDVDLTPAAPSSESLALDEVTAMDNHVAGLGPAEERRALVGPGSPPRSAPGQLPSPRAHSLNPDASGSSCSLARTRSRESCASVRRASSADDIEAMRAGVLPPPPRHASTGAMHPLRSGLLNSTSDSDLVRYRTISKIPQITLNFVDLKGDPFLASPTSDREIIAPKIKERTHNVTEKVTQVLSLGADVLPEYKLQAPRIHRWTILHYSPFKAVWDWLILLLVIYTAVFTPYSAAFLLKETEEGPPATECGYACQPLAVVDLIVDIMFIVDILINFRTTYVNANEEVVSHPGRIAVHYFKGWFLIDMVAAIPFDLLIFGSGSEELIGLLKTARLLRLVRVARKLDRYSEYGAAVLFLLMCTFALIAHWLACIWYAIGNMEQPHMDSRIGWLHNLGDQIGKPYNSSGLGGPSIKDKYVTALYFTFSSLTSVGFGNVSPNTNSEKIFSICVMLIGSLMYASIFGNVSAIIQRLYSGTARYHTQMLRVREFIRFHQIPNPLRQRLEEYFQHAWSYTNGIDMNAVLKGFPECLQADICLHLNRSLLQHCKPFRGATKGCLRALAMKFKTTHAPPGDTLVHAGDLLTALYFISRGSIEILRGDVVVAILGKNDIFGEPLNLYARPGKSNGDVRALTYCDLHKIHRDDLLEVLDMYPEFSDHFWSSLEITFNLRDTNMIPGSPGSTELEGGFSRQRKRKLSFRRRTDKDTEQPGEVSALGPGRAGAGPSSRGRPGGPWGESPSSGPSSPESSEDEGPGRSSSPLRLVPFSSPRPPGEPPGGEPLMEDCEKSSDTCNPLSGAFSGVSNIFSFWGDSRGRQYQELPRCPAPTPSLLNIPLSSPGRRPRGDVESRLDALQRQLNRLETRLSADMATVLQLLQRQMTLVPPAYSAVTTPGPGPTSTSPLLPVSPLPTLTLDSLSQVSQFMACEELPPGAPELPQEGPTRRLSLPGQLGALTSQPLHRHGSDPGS

Row | Compound | hERG current change (%, negative = inhibition) at 1uM [%]
1 | Cc1ccc(CN(C(=O)COc2ccc(C)c(C)c2)C2CCS(=O)(=O)C2)o1 (stereo not drawn) | 0.459
2 | CCNc1nc(NCC)nc(N(CC)C(N)=S)n1 | 6.9
3 | Cc1ccc(S(=O)(=O)NCC(=O)OCC(=O)Nc2cccc(S(=O)(=O)NC3=NCCCCC3)c2)cc1 | 11.9
4 | COCCNC(=O)c1ccc(C2SCC(=O)N2Cc2ccco2)cc1 (stereo not drawn) | 10.2
5 | Cc1oc(-c2ccc(Cl)cc2)cc1C(=O)NC1CCN(Cc2ccccc2)CC1 | 9.73
6 | Cc1cc(C(=O)Nc2cccc3ccccc23)c(C)o1 | 8.64
7 | CNC(=S)N/N=C1\CC(c2ccccc2)Oc2ccccc21 (stereo not drawn) | 17.9
8 | O=C(CSc1cn(CCNC(=O)c2cccs2)c2ccccc12)NCC1CCCO1 (stereo not drawn) | -1.71
9 | CC(=O)OC(C(=O)NC1CCCCC1)c1cccc(F)c1 (stereo not drawn) | 10.4
10 | Cc1nc2ccccc2n1-c1ccccc1 | 4.78
11 | CC1(CCC#N)N=C(SCCC#N)N(c2ccccc2)C1=O (stereo not drawn) | 6.38
12 | C=CCn1c(SCC(=O)Nc2cccnc2Cl)nnc1-c1ccccc1F | 10.6
13 | CCCn1c(C(C)Nc2nc(-c3ccc(OC)cc3)cs2)nc2ccccc21 (stereo not drawn) | 14
14 | CCc1ccc(OCC(=O)Nc2ncn[nH]2)cc1 | 8.98
15 | CN1CCN(c2ccccc2NC(=O)c2cccc(OCc3ccccc3)c2)CC1 | -41.6
16 | C/C(=N\O)C(=O)NCc1ccccn1 | 6.07
17 | COc1ccc(OC)c(-c2nc(CN3CCN(C(=O)c4ccco4)CC3)c(C)o2)c1 | 8.33
18 | CC(NS(=O)(=O)c1ccc(Cl)cc1)C(=O)N1CCOCC1 (stereo not drawn) | -0.146
19 | O=C(NC1CCN(S(=O)(=O)c2ccccc2)CC1)c1ccccc1 | 13.1
20 | CCOC(=O)NNc1cc(C(F)(F)F)ccn1 | 9.92
21 | O=C(NCc1ccccc1)C(=O)NCC1CCCN1S(=O)(=O)c1cccs1 (stereo not drawn) | 7.6
22 | COCC(=O)Nc1ccc(S(=O)(=O)Nc2cc(C)nc(C)n2)cc1 | 5.11
23 | COc1ccc(CCNC(=O)c2cc(-c3ccccc3)on2)cc1OC | 10.7

Row | Compound | hERG current change (%, negative = inhibition) at 1uM [%]
24 | COc1cccc2cc(C(=O)N3CCc4ccccc43)c(=O)oc12 | 12.9
25 | C/C(=N\NC(=O)Cc1cccn1C)c1ccc([N+](=O)[O-])cc1 | 5.66
26 | O=C(NCCCN1CCOCC1)c1cccc(S(=O)(=O)Nc2ccccc2Cl)c1 | 2.65
27 | O=C(CN1C(=O)S/C(=C\c2cccs2)C1=O)Nc1ccc(O)cc1C(=O)O | 8.16
28 | O=C(Nc1ccccc1)c1cnc(-c2ccccc2)nc1-c1ccccc1 | 2.1
29 | COC(=O)c1ccc(COc2ccccc2[N+](=O)[O-])o1 | 9.73
30 | O=C(COc1ccc(Br)cc1)N1CCCCCC1 | -7.76
31 | C=CCn1c(N2CCCC2)nc2c1c(=O)[nH]c(=O)n2C | 11.1
32 | CC1=C(C(=O)Nc2ccc(F)cc2)C(c2ccc(C)o2)C2=C(CC(C)(C)CC2=O)N1 (stereo not drawn) | 2.12
33 | NS(=O)(=O)c1ccc(NN=C2CCN(Cc3ccccc3)CC2)c([N+](=O)[O-])c1 | 6.82
34 | COc1ccc(C(=O)OCC(=O)Nc2sccc2C(N)=O)cc1[N+](=O)[O-] | 4.86
35 | O=C(Nc1ccc2c(c1)OCCO2)c1ccc2ccccc2n1 | -0.879
36 | COc1ccccc1N1CCN(CC(=O)Nc2ccccc2C(=O)NC(C)c2ccccc2)CC1 (stereo not drawn) | 9.04
37 | Cc1ccc(C(=O)NCCSc2ccccc2)cc1S(=O)(=O)Nc1ccccc1 | -5.15
38 | Cc1ccc(N(CC(=O)NCC2CCCO2)C(=O)CNS(=O)(=O)c2ccc(Cl)cc2)cc1 (stereo not drawn) | 6.77
39 | CCOC(=O)c1nc2nc(C)c(Cl)c(=O)n2[nH]1 | 9.83
40 | CCOCCCN=Cc1c(O)n(Cc2ccccc2)c(=O)[nH]c1=O | 2.78
41 | CCOCCOc1cccc(C(=O)NC(C)c2ccc3ccccc3c2)c1 (stereo not drawn) | 13.2
42 | CN1CCN(C(=O)CN(C)S(=O)(=O)c2cc(Cl)ccc2Cl)CC1 | 13.9
43 | CC(=O)NC(c1cc(Cl)c2ccccc2c1O)C(C)C (stereo not drawn) | 7.21
44 | Cc1ccccc1-n1ccnc1SCC(=O)NC1CCCC1 | 9.39
45 | C=CCN1CN(S(=O)(=O)c2cccs2)c2nc3ccccc3nc21 | 7.98
46 | O=C(CCCOc1ccccc1)N1CCN(S(=O)(=O)c2ccccc2)CC1 | 8.22

Row | Compound | hERG current change (%, negative = inhibition) at 1uM [%]
47 | O=C(CSC(=S)N1CCCC1)NCC(=O)Nc1ccc(F)c(F)c1 | 6.02
48 | CC1CN(c2nc3ccccc3nc2C(C#N)C(=O)NC2CCCCC2)CC(C)O1 (stereo not drawn) | 12.6
49 | CC(C)(CN1CCN(Cc2ccccc2)CC1)NS(=O)(=O)c1ccccc1 | -13.7
50 | O=C(CNC(=O)C1COc2ccccc2O1)N/N=C\c1ccccc1Cl (stereo not drawn) | 8.04
51 | S=C(Nc1ccc(Cl)c(Cl)c1)NN1CCOCC1 | 7.79
52 | Cc1ccc(C)c(S(=O)(=O)Nc2ccc(C(=O)NCCc3ccccn3)cc2)c1 | 7.74
53 | Cc1cc(C)c2c(c1)/C(=N/NC(=O)c1ccc(O)cc1)CCC2 | 7.8
54 | COC(=O)CNC(=S)NC(=O)c1ccc(C(C)(C)C)cc1 | 10.6
55 | Cc1ccc(Cl)cc1NC(=O)CN1CCN(S(=O)(=O)N2CCOCC2)CC1 | -31.6
56 | N#CCSc1nc(-c2ccccc2)cs1 | 8.02
57 | CCc1ccc(-c2ccc(C(=O)C(F)(F)F)[nH]2)cc1 | 5.63
58 | CCCCc1nc2sc3c(=O)n(N)cnc3c2c2c1CCCC2 | 20.8
59 | COc1ccc(C2=C(C)CC(C)(C)NC2=O)cc1OC | 12.7
60 | O=C1c2nccnc2C(=O)N1c1ccc(F)cc1 | 7.28
61 | Cc1cc(C)c(C#N)c(SCc2cc3c(cc2Cl)OCO3)n1 | 9.29
62 | CCOC(=O)c1[nH]c2ccccc2c1NC(=O)c1cc(OC)c(OC)c(OC)c1 | 4.56
63 | COc1ccc(NC(=O)c2cc(-c3cc(C)ccc3O)n[nH]2)cc1Cl | 3.07
64 | COc1ccc(CCN2C(=NC(=O)C(C)C)SC3CS(=O)(=O)CC32)cc1OC (stereo not drawn) | 10.6
65 | CCOc1cc2[nH]c(=O)n(CCc3ccc(OC)c(OC)c3)c(=O)c2cc1OCC | 17.6
66 | O=c1cc(N=Nc2ccc(Cl)cc2)[nH]c(=O)[nH]1 | 6.32
67 | Cc1cnn2c(C3CC3)ccnc12 | 8.17
68 | COc1cccc(CNC(=O)Cn2nc(-c3ccc(Cl)cc3)ccc2=O)c1 | -7.66
69 | Cc1cc(C(=O)COC(=O)CC2Sc3ccccc3NC2=O)c(C)n1-c1ccccc1 (stereo not drawn) | 17.8

Row | Compound | hERG current change (%, negative = inhibition) at 1uM [%]
70 | O=C/C(=C\Nc1ccc(S(=O)(=O)CCO)cc1)c1nc2cc(Cl)ccc2o1 | 2.58
71 | Nc1cc(C(F)(F)F)cc([N+](=O)[O-])c1N | 6.48
72 | COC(=O)c1ccc(Cn2nnc3c(=O)[nH]c(C4CCN(S(=O)(=O)c5ccc(F)cc5)CC4)nc32)cc1 | 8.63
73 | Cc1ccc(-n2nc3ccc(N)cc3n2)cc1Cl | 14
74 | Cc1ccc(NC2=C(NCCO)C(=O)c3ccccc3C2=O)cc1 | 3.27
75 | O=C(C1CCC1)N1CCN(c2ccccc2)CC1 | 14.2
76 | CC(=O)c1ccc(N(C(=O)CS(=O)CC(=O)Nc2ccc(F)cc2)C(C(=O)NC2CCCCC2)c2cccs2)cc1 (stereo not drawn) | 15.3
77 | CSc1ccc(/C=C/C(=O)OCC(=O)NCC2CCCO2)cc1 (stereo not drawn) | 12.2
78 | CC1CC(C)CN(CCCNC(=O)C2CCN(c3ncnc4c3sc3cccc(F)c34)CC2)C1 (stereo not drawn) | -14.9
79 | NS(=O)(=O)c1ccc(NC(=O)COC(=O)CCc2c[nH]c3ccccc23)cc1 | 18.5
80 | CCCOC(=O)c1ccc(-[n+]2c(-c3ccccc3)cc(-c3ccccc3)cc2-c2ccccc2)cc1.[O-][Cl+3]([O-])([O-])[O-] | -12.4
81 | CCCCCCNC(=O)CCNS(=O)(=O)c1ccc(C)cc1 | 9.15
82 | Cn1c(C=O)c(C#Cc2ccccc2)c2ccccc21 | 8.72
83 | O=C(CN1C(=O)/C(=C/c2cccc(Cl)c2)SC1=S)NC1C=CS(=O)(=O)C1 (stereo not drawn) | 12.8
84 | CCC(c1nnc(SCC(=O)Nc2cccc(S(N)(=O)=O)c2)n1-c1ccc(OC)cc1)N(C)C (stereo not drawn) | 13.2
85 | O=c1[nH]c2ccccc2c(=O)n1CCCO | 5.33
86 | CC(/C=N/NC(=O)c1cc(-c2ccc3ccccc3c2)n[nH]1)=C\c1ccco1 | 3.36
87 | O=C(c1cc(Cl)ccc1Cl)N1CCN(c2ccccn2)CC1 | -4.02
88 | CC(=O)c1c(C)oc2ccc(N(C(=O)c3ccncc3)S(=O)(=O)c3ccccc3)cc12 | 1.05
89 | CC1=C(C(=O)OCCC#N)C(c2cc3c(cc2Br)OCO3)NC(=O)N1 (stereo not drawn) | 12.9
90 | Cc1onc(-c2ccccc2)c1C(=O)NNC(=S)NC(=O)/C=C/c1cccs1 | 7.15
